The other results are listed elsewhere or left out.
Tests used:
HSkMC = human skeletal muscle cells; assay: cytotoxicity call (relative viability < 0.9); conditions: 10 µM
S. aureus RN4220 = assay: growth inhibition call (relative growth <= 0.2); conditions: 50 µM

SMILES | cytotoxicity call (HSkMC) | growth inhibition call (S. aureus RN4220)
C[C@@H]1CCCCO[C@H](CN(C)Cc2ccccc2)[C@H](C)CN([C@H](C)CO)C(=O)c2cc(NC(=O)Nc3ccccc3)ccc2O1 | inactive | inactive
O=C1NC(=O)/C(=C\c2ccccc2)N1 | inactive | inactive
CCc1nn(C)c2c(=O)c(=O)c2n(C)[nH]1 | inactive | inactive
Nc1ncnc2c1CCC2 | inactive | inactive
Cc1ccc(S(=O)(=O)Nc2ccc3c(c2)C(=O)N([C@H](C)CO)C[C@H](C)[C@@H](CN(C)S(C)(=O)=O)OCCCC[C@@H](C)O3)cc1 | inactive | inactive
C[C@H](CO)N1C[C@H](C)[C@H](CN(C)S(=O)(=O)c2cn(C)cn2)Oc2c(NS(=O)(=O)c3cn(C)cn3)cccc2C1=O | inactive | inactive
C[C@@H]1CN([C@@H](C)CO)C(=O)Cc2cc(NS(C)(=O)=O)ccc2O[C@H]1CN(C)S(=O)(=O)c1ccccc1 | inactive | inactive
COc1ccc(CN(C)C[C@@H]2Oc3c(NC(=O)c4cnccn4)cccc3C(=O)N([C@@H](C)CO)C[C@H]2C)cc1 | inactive | inactive
C[C@@H]1O[C@@H](OC[C@H]2O[C@@H](OCCc3ccccc3)[C@H](O)[C@@H](O)[C@@H]2O)[C@H](O)[C@H](O)[C@H]1O | inactive | inactive
C[C@@H]1CN([C@@H](C)CO)C(=O)c2cc(C#C[C@@H](C)O)cnc2O[C@H]1CN(C)Cc1cncnc1 | inactive | inactive
C[C@H](CO)N1C[C@H](C)[C@@H](CN(C)S(=O)(=O)c2cn(C)cn2)Oc2ccc(NC(=O)CCC(F)(F)F)cc2C1=O | inactive | inactive
CCSC(=O)NC1CCCCC1 | inactive | inactive
C[C@@H]1CCCCO[C@H](CN(C)S(=O)(=O)c2ccc(F)cc2)[C@H](C)CN([C@@H](C)CO)C(=O)c2cc(NC(=O)NC3CCCCC3)ccc2O1 | inactive | inactive
NNC(=S)NCc1ccc(F)cc1 | inactive | inactive
C[C@H]1CN([C@@H](C)CO)C(=O)c2cccc(NC(=O)Nc3ccc4c(c3)OCO4)c2O[C@@H]1CN(C)Cc1ccc(-c2ccccc2)cc1 | inactive | inactive
COc1ccc2c3c(n(c2c1)C)[C@H](CO)N(C[C@]13CCN(CC1)C(=O)C1CCOCC1)C(=O)C1CCOCC1 | inactive | inactive
CC(C)N1C[C@H](C)[C@@H](CN(C)Cc2ccc(Cl)c(Cl)c2)Oc2c(cccc2-c2nnc(-c3ccncc3)o2)C1=O | inactive | inactive
COc1ccc(S(=O)(=O)N(C)C[C@@H]2Oc3ncc(-c4cccc(OC)c4)cc3C(=O)N([C@H](C)CO)C[C@@H]2C)cc1 | inactive | inactive
C[C@@H]1CCCCO[C@@H](CN(C)CC2CCCCC2)[C@@H](C)CN([C@@H](C)CO)C(=O)c2cc(NC(=O)NC3CCCCC3)ccc2O1 | inactive | inactive
CO[C@@H]1CN(C)C(=O)c2ccc(NS(=O)(=O)c3cn(C)cn3)cc2OC[C@H](C)N(CCC(F)(F)F)C[C@@H]1C | inactive | inactive
C[C@H]1CCCCO[C@H](CN(C)S(=O)(=O)c2cccs2)[C@@H](C)CN([C@@H](C)CO)C(=O)c2cc(NS(C)(=O)=O)ccc2O1 | inactive | inactive

SMILES | cytotoxicity call (HSkMC) | growth inhibition call (S. aureus RN4220)
C[C@@H]1CN([C@H](C)CO)C(=O)c2cc(NC(=O)CCCCCC(=O)Nc3ccccc3N)ccc2O[C@@H]1CN(C)Cc1ccccc1 | inactive | inactive
Cc1ccc(-c2ccc3c(c2)O[C@@H](CN(C)C(=O)NC(C)C)[C@H](C)CN([C@@H](C)CO)S3(=O)=O)cc1 | inactive | inactive
C[C@@H]1CN([C@@H](C)CO)C(=O)c2cccc(NS(=O)(=O)c3ccc(F)cc3)c2O[C@@H]1CN(C)S(=O)(=O)c1cccs1 | inactive | inactive
C[C@@H]1CCCCO[C@@H](CN(C)Cc2ccc(C(F)(F)F)cc2)[C@H](C)CN([C@H](C)CO)C(=O)c2cc(NC(=O)Cc3ccccc3)ccc2O1 | active | inactive
O=C(C[C@@H]1C=C[C@H](NC(=O)c2cccc(F)c2)[C@H](CO)O1)NCCN1CCCC1 | inactive | inactive
C[C@@H]1CN([C@@H](C)CO)C(=O)c2cccc(NC(=O)CCCCCC(=O)Nc3ccccc3N)c2O[C@H]1CN(C)CC1CCCCC1 | inactive | inactive
O=C1C[C@]2(c3ccc([N+](=O)[O-])cc3)C(=O)N(CC(F)(F)F)c3cc(CO)ccc3[C@H]2N1CC12CC3CC(CC(C3)C1)C2 | inactive | inactive
Cc1noc(C)c1NC(=O)N(C)C[C@H]1OCCCC[C@H](C)Oc2ccc(NS(=O)(=O)c3ccccc3)cc2C(=O)N([C@@H](C)CO)C[C@@H]1C | inactive | inactive
C[C@@H]1CN([C@H](C)CO)C(=O)c2cc(NC(=O)CCCCCC(=O)Nc3ccccc3N)ccc2O[C@@H]1CN(C)S(C)(=O)=O | inactive | inactive
CNC[C@@H]1OCCCC[C@H](C)Oc2ccc(NC(=O)Nc3ccc(C(F)(F)F)cc3)cc2C(=O)N([C@@H](C)CO)C[C@@H]1C | inactive | inactive
CN(C)CC(=O)N1[C@H](CO)[C@@H](c2ccc(C3=CCCC3)cc2)C12CN(S(=O)(=O)Cc1ccccc1)C2 | inactive | inactive
CN1CCCC1c1cccnc1.O=C(O)C(O)C(O)C(=O)O.O=C(O)C(O)C(O)C(=O)O (stereo unspecified) | inactive | inactive
COCCNC(=O)C[C@H]1C[C@@H]2c3cc(NC(=O)Nc4ccc(C(F)(F)F)cc4)ccc3O[C@@H]2[C@H](CO)O1 | inactive | inactive
O=C1CCOC[C@@H]2CCCN12 | inactive | inactive
C[C@H](CO)N1C[C@H](C)[C@H](CN(C)C(=O)c2ccccc2F)Oc2ncc(C#Cc3ccncc3)cc2C1=O | inactive | inactive
COCC(=O)N1C[C@H](C)[C@@H](OC)CN(C)C(=O)c2cc(NC(=O)c3cc(C)on3)ccc2OC[C@H]1C | inactive | inactive
O=c1[nH]cnc2nc[nH]c12 | inactive | inactive
C[C@@H]1CN([C@H](C)CO)S(=O)(=O)c2ccc(-c3cncnc3)cc2O[C@@H]1CN(C)C(=O)CN(C)C | inactive | inactive
C[C@H](CO)N1C[C@H](C)[C@H](CN(C)S(=O)(=O)c2ccc3c(c2)OCCCO3)OCc2cn(nn2)CCCC1=O | inactive | inactive
CC(C)Oc1ccc(Cl)cc1CN | inactive | inactive
Cc1ccc(S(=O)(=O)N(C)C[C@@H]2Oc3ccc(NC(=O)CCCN(C)C)cc3CC(=O)N([C@H](C)CO)C[C@H]2C)cc1 | inactive | inactive

SMILES | cytotoxicity call (HSkMC) | growth inhibition call (S. aureus RN4220)
C[C@H]1CCCn2nncc2COCCNC1=O | inactive | inactive
C=C(C)C1CCC2(C)CCC3(C)C(CCC4C5(C)CCC(O)C(C)(C)C5CCC43C)C12 (stereo unspecified) | inactive | inactive
C[C@@H]1CN([C@@H](C)CO)C(=O)Cc2cc(NC(=O)C3CC3)ccc2O[C@H]1CN(C)C(=O)NC1CCCCC1 | inactive | inactive
CN1C(=O)c2cc(NC(=O)c3cccs3)ccc2OC[C@@H]2O[C@H](CC(=O)NCC(F)(F)F)CC[C@@H]21 | inactive | inactive
C[C@@H]1CN([C@H](C)CO)C(=O)c2cc(NC(=O)c3ccccc3)ccc2O[C@@H](C)CCCCO[C@H]1CN(C)C(=O)CCC(F)(F)F | inactive | inactive
C[C@@H]1CN([C@H](C)CO)C(=O)c2cccc(NC(=O)c3nc4ccccc4s3)c2O[C@@H]1CN(C)Cc1ccc(C(=O)Nc2ccccc2N)cc1 | inactive | inactive
CO[C@@H]1CN(C)C(=O)c2cc(NC(=O)Nc3cccc(Cl)c3)ccc2OC[C@@H](C)N(C(=O)Nc2c(C)noc2C)C[C@@H]1C | inactive | inactive
Cc1ccc(S(=O)(=O)N2CCO[C@@H]2CNC(=O)C(=O)NCc2ccccn2)cc1 | inactive | inactive
CC(C)NC(=O)N(C)C[C@@H]1OCc2cn(nn2)CCCC(=O)N([C@@H](C)CO)C[C@H]1C | inactive | inactive
COc1ccc(S(=O)(=O)N(C)C[C@H]2Oc3ccc(N(C)C)cc3CC(=O)N([C@H](C)CO)C[C@H]2C)cc1 | inactive | inactive
C[C@@H]1CN([C@H](C)CO)C(=O)Cc2cc(NC(=O)Nc3ccccc3)ccc2O[C@@H]1CN(C)S(=O)(=O)c1cn(C)cn1 | inactive | inactive
O=C(O)C[C@H]1CC[C@@H]2[C@H](COC[C@@H](O)CN2S(=O)(=O)c2ccc(F)cc2)O1 | inactive | inactive
COc1ccc(S(=O)(=O)N(C)C[C@H]2OCCCC[C@H](C)Oc3ccc(NC(=O)c4ccccc4)cc3C(=O)N([C@H](C)CO)C[C@H]2C)cc1 | inactive | inactive
Cc1ccc(S(=O)(=O)Nc2ccc3c(c2)C(=O)N([C@@H](C)CO)C[C@H](C)[C@H](CN(C)C(=O)Nc2cccc4ccccc24)O3)cc1 | inactive | inactive
C[C@@H]1CN([C@@H](C)CO)C(=O)c2cccc(NS(=O)(=O)c3ccccc3)c2O[C@H]1CN(C)S(=O)(=O)c1cn(C)cn1 | inactive | inactive
COCCNCCn1cnc2c1c(=O)[nH]c(=O)n2C | inactive | inactive
C[C@@H]1CCCCO[C@H](CN(C)Cc2ccc(C(=O)O)cc2)[C@H](C)CN([C@H](C)CO)C(=O)c2cc(NS(=O)(=O)c3cccs3)ccc2O1 | inactive | inactive
O=C(CS)NCCCCCCNC(=O)[C@@H]1C[C@@H]2C(=O)N3CCC[C@H]3C(=O)N2[C@@H]1c1cccc(OCCO)c1 | inactive | inactive
COc1ccc(-c2coc3cc(O)ccc3c2=O)c(O)c1O | inactive | inactive
O=C(C[C@H]1CC=CC[C@H](Cc2ccc(F)cc2)C(=O)OC[C@@H](Cc2c[nH]c3ccccc23)NC1=O)NCCO | inactive | inactive
C[C@H](CO)N1C[C@H](C)[C@@H](CN(C)C(=O)NC2CCCCC2)OCCCC[C@H](C)Oc2ccc(NS(=O)(=O)c3ccccc3)cc2C1=O | inactive | inactive
